Measured values reported in ChEMBL document CHEMBL4888484, “Replenishing the malaria drug discovery pipeline: Screening and hit evaluation of the MMV Hit Generation Library 1 (HGL1) against asexual blood stage Plasmodium falciparum ,using a nano luciferase reporter read-out” (2022).
About 540 (0.36%) of roughly 150,000 compounds showed an effect of 50% or more. Some of the results follow.

system: Plasmodium falciparum; experiment: Primary screen in NF54 nanoGlo assay, in single point, at 2uM, 72h; a lower Z score goes with more inhibition; format: functional, Erythrocyte; conditions: timepoint 72 hour

| SMILES | % Inhibition | Z score |
| --- | --- | --- |
| COc1c(C)ccc(NCc2noc(C3CC3)n2)c1C | 0% | 0.04 |
| CCOc1cc(NCc2nc(C)sc2C)ncn1 | -8% | 0.83 |
| CNc1ncc(CN(C)C(=O)Cn2cnc3ccccc3c2=O)cn1 | -5% | 0.58 |
| Cc1ccc(C[C@@H]2C(=O)N(c3ccccc3)c3ccccc32)cc1 | 0% | -0.01 |
| Cc1ccc(C(=O)N2CCC(c3nc(C)ccc3C(=O)N3CCCC3)CC2)cc1 | -2% | 0.26 |
| Cc1ccc(-c2cnn(CC(=O)Nc3cc(F)ccc3F)c(=O)n2)cc1 | 5% | -0.57 |
| Cc1nc(CCNC(=O)c2nn(-c3cccc(C(C)C)c3)cc2O)cs1 | -16% | 2.56 |
| CCCCCOCC(=O)N[C@@H]1c2ccccc2C[C@H]1O | -11% | 1.38 |
| Cc1ccc(NC(=O)Nc2ccc(N3CCN(Cc4ccccc4)CC3)c(C(=O)NC3CCCCC3)c2)cc1 | 3% | -0.58 |
| Cc1cnc(C)c(-c2cccc(-c3ccn(C[C@H]4CCCN(C)C4)n3)c2)n1 | -3% | 0.53 |
| Cc1cc2n(n1)CCN(Cc1nc(-c3ccco3)no1)C2 | -12% | 2.39 |
| COC(=O)c1cc(CNC(=O)[C@H](C)OCC(C)C)ccn1 | -8% | 1.3 |
| CCOC(=O)N1CCC(NC(=O)[C@@H]2CCCO2)CC1 | 5% | -0.44 |
| O=C(Nc1cncc(Br)c1)NC1CC(F)(F)C1 | -8% | 1.21 |
| COc1ccc(C(=O)N(C[C@H](O)c2ccccc2)CC(C)(C)C)c(F)c1 | -7% | 0.91 |
| Fc1ccc(F)c(-c2cncc(CN3CCN(Cc4ccccc4)CC3)c2)c1 | -4% | 0.46 |
| C[C@H](NCC(=O)N(C)C)c1cncc(F)c1 | -10% | 1.24 |
| O=C(N[C@@H]1CCC[C@]12CCCO2)c1cccc(Nc2nccs2)c1 | -11% | 1.45 |
| Cc1oc(-c2[nH]ncc2C(=O)N2CCCCC2)cc1S(=O)(=O)Nc1ccccc1 | -14% | 1.68 |
| Fc1cc2ncn(Cc3nc(-c4ccco4)no3)c2cc1F | -15% | 1.3 |
| c1ccc(C(Nc2nnnn2-c2ccccc2)c2ccccc2)cc1 | 2% | -0.41 |

| SMILES | % Inhibition | Z score |
| --- | --- | --- |
| CN[C@@H](C)c1ccccc1Br | -11% | 1.09 |
| Cc1nc[nH]c1-c1nccn1Cc1nc2ccccc2s1 | -14% | 2.63 |
| Cc1noc(C)c1CCn1cnn(C)c1=O | -2% | 0.24 |
| COc1ccc2ccccc2c1-c1cn([C@@H](C)c2nnn[nH]2)nn1 | -15% | 2.47 |
| CCc1ccccc1NC(=O)c1c(NC(=O)c2ccccc2Cl)sc(-c2ccccc2)c1C | 11% | -1.25 |
| CC(NCC(c1ccco1)N1CCCC1)c1cnnn1C (centres undefined) | -14% | 2.77 |
| Cc1nc([C@@](C)(NCc2ccnc(N(C)C)c2)C2CC2)no1 | -15% | 2.32 |
| CC(O)CC1CCCN1CCCc1ccccc1 (centres undefined) | -9% | 0.84 |
| COc1c(C(=O)Nc2ccc3c(c2)OCO3)sc2cc(Cl)ccc12 | -8% | 1.44 |
| COC[C@H](O)CNC(=O)Nc1cc(Cl)c(C)cc1Cl | -4% | 0.69 |
| Cc1oncc1NC(=O)C[C@H](C)c1ccc(F)cc1F | 0% | -0.01 |
| Cc1n[nH]c(C)c1CC(=O)N(C)Cc1nc(C(C)C)no1 | -4% | 0.76 |
| Cc1ccc(N2CCN(Cc3nc(C(=O)NC[C@H]4CCCO4)co3)CC2)cc1 | -8% | 1.26 |
| CCC(C(=O)Nc1cccnc1)(C(F)(F)F)C(F)(F)F | -14% | 2.17 |
| CCOC(=O)Nc1cc(C(=O)OC)ccc1C | -10% | 1.49 |
| CN(C(=O)[C@@H]1CCCN1C(N)=O)C1CC1 | 7% | -0.88 |
| O=C(Cn1c(=O)n(CCc2cccs2)c(=O)c2sccc21)Nc1ccc(Cl)cc1 | 13% | -1.65 |
| C=CCC(C(=O)N1CCC(c2cnccn2)C1)c1ccccc1 (centres undefined) | -3% | 0.41 |
| CC(C)(O)[C@H]1CCN(c2ccc3cc(Cl)ccc3n2)C1 | -5% | 0.76 |
| Cc1cc(C)cc(NC(=O)C2CCN(c3c(C(=O)N4CCCCC4)cnc4snc(C)c34)CC2)c1 | -2% | 0.33 |
| COc1ccc(CN(C(=O)CC#N)C2CCCCC2C)cc1OC (centres undefined) | -4% | 0.77 |
